Reference: PMC6212790
Some of the results follow. At the low end of the ranking, values are background and their order means little.

molecular target: T1, GST-Rok-C97-191 (UniProt O34857); test: protein binding microarray; conditions: Rok is a gene silencer of Bacillus subtilis; high values mean tight binding; most listed sequences are background and not binding sites; double strand, one strand shown;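 note: rank score from −0.5 (least bound) to 0.5 (best bound)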
T1 sequence: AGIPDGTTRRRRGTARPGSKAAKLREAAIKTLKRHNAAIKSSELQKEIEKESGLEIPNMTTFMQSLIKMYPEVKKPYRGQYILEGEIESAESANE

Row | Sequence | binding signal [E-score]
1 | AGCGCCTC | -0.208
2 | CCTTCAAC | -0.0251
3 | AACCATCA | -0.0117
4 | GAGTCACC | -0.306
5 | CTGAGGCC | -0.276
6 | AAACGATC | 0.0409
7 | CGATATCG | 0.199
8 | ACTACGGG | -0.07
9 | TGATTAAA | -0.123
10 | AACCAGGC | -0.227
11 | AGGAGGAT | -0.118
12 | CTCAATGC | -0.173
13 | CCACGGGG | -0.367
14 | AGATCCAC | -0.0974
15 | GGACAAAA | -0.0959
16 | AAGCGACC | -0.151
17 | CCCTTATA | -0.162
18 | ACCCTGCG | -0.261
19 | CCAAAGCC | -0.289
20 | AAACGGAC | -0.032
21 | AGGAGCAC | -0.222
22 | CAGAAATG | -0.00219
23 | CTCTAGTA | 0.212
24 | AACGTATA | 0.205
25 | ACGGAAGA | 0.0353

Row | Sequence | binding signal [E-score]
26 | AGGCGAAG | -0.0998
27 | GTCAACTA | 0.0659
28 | CTGAGTTC | -0.188
29 | AACCTCCC | -0.244
30 | CTGTCATA | -0.108
31 | CCGTTGCA | -0.0719
32 | CTTCAATC | -0.121
33 | TGACTACA | 0.031
34 | AGAACTCT | 0.0863
35 | AAGGCAAT | -0.0842
36 | CGCTAAGC | -0.17
37 | ACCCAGAA | -0.109
38 | GACGGCTA | -0.221
39 | CAGCGCGG | -0.215
40 | CATTCGAA | 0.101
41 | TAAAAAGA | 0.152
42 | AATTACTG | 0.253
43 | AGCACGAC | -0.0405
44 | AATAAAAG | 0.096
45 | ATTAACCC | 0.00506
46 | CAAGACGG | -0.136
47 | CTAGTACC | 0.244
48 | ATCAACCC | -0.0743
49 | ACGGGGGG | -0.23
50 | AGCAATGC | 0.0777

Row | Sequence | binding signal [E-score]
51 | GAGCGCCA | -0.21
52 | ACCCCCTG | -0.261
53 | CCCGTGCG | -0.324
54 | CCACCAAC | -0.239
55 | AATAAGTA | 0.273
56 | GATAAACC | 0.113
57 | CCAGACTC | -0.071
58 | ATGCCGGC | -0.3
59 | AACCGCAC | -0.155
60 | GAGAAAAC | 0.0044
61 | GCTGAACC | -0.187
62 | CGGAATAC | 0.103
63 | AATAAATT | 0.282
64 | ATGATTCC | -0.0893
65 | AGGGGGAG | -0.243
66 | GTCCCGTA | 0.0986
67 | AAAATAGC | 0.21
68 | GGCATGAA | 0.0205
69 | AATTCACG | 0.127
70 | GCAACAGA | -0.0918
71 | CAGGCCGA | -0.165
72 | GCGAACCA | -0.221
73 | CCAGAGCG | -0.288
74 | CAGTCTAC | 0.0696
75 | ATCTGAAG | -0.267

Row | Sequence | binding signal [E-score]
76 | CGCCAGTC | -0.225
77 | CGCACAAG | -0.271
78 | ACCCGGCT | -0.0887
79 | CCTCCTCC | -0.437
80 | CCAATCTA | 0.316
81 | AGCCATTG | -0.0954
82 | GCTAAAGA | 0.0226
83 | ATGCAGGC | -0.0839
84 | GCTGATTA | 0.0269
85 | ACTTGCCT | -0.03
86 | CGAGGATA | -0.0625
87 | CTGTACTC | 0.0566
88 | CAGTATGC | -0.144
89 | ACAACTTA | 0.152
90 | CTCTCCAC | -0.106
91 | AATTTACG | 0.338
92 | ATATCTCG | 0.199
93 | TGAAACAA | -0.122
94 | AACTTCTC | 0.117
95 | AAATGACG | -0.0261
96 | CTTGAGGA | 0.0216
97 | GACCAGTC | -0.116
98 | CTTGTGTC | -0.132
99 | GATTACGA | 0.0379
100 | AAAATGCC | 0.176

Row | Sequence | binding signal [E-score]
101 | AAAGCCTT | -0.215
102 | CCATAAGA | 0.104
103 | TTCCACAA | -0.0623
104 | GCTACCCC | 0.0676
105 | AGTCTAGA | 0.011
106 | AGGCGCGG | -0.328
107 | CACTTGGG | -0.0774
108 | GAGACAGA | -0.199
109 | ATCTTATA | 0.286
110 | AAAAGGCA | -0.0386
111 | CCTATGGC | -0.202
112 | CAGAAAAA | -0.311
113 | GTCCCAGA | -0.0942
114 | CACTGGCA | -0.312
115 | AGAGCTAC | 0.0603
116 | AGATGCAC | -0.113
117 | CCGATATC | 0.0718
118 | AAATCCTA | 0.128
119 | AATCTTAG | 0.144
120 | AGCTGGAT | 0.0164
121 | GCCACTCC | -0.161
122 | CTACATTA | 0.245
123 | ATCTACCG | 0.394
124 | CGTCCCTA | -0.187
125 | CTGCTCGC | -0.129

Row | Sequence | binding signal [E-score]
126 | CAGAAAGG | -0.223
127 | CTCGTAGC | 0.109
128 | CTTGAAGC | -0.226
129 | TACCGAGA | 0.0988
130 | AGCGCGAC | 0.137
131 | CTGCAGAC | 0.118
132 | AATATCCT | 0.07
133 | ACGAATGA | 0.16
134 | CTACAAAA | 0.0521
135 | CGCACGTA | -0.0986
136 | GACCCAGA | -0.142
137 | CCCGAGGG | -0.363
138 | CTGTAAAA | 0.0478
139 | CTACGTGC | -0.0669
140 | ACCGCGGC | -0.188
141 | AGCTACAG | 0.247
142 | ATCTTTCC | -0.128
143 | GCATGTCC | 0.0487
144 | GTCAACAC | -0.142
145 | ACTAGTGG | -0.0087
146 | AGGTACCA | 0.256
147 | GTGAAGCA | -0.239
148 | CGCGGGGA | -0.321
149 | GAGCCTAA | -0.143
150 | CCAGATCC | -0.209

Row | Sequence | binding signal [E-score]
151 | AACGCAAC | -0.0443
152 | CTAAATTC | 0.23
153 | CCCTTTCC | -0.246
154 | AGCTGAGG | -0.237
155 | CCTTTGTC | -0.261
156 | AACCACAG | -0.102
157 | AGCAAGCC | 0.0134
158 | CCTTCGCG | -0.181
159 | ACAAGAAT | -0.0905
160 | CGAATATC | 0.0293
161 | AGGATATG | -0.0495
162 | AAGAGACA | -0.221
163 | ACCCCCAA | -0.399
164 | CGACCTAG | 0.0268
165 | GAACTACC | 0.367
166 | ACGTGAAA | 0.0489
167 | ATGACAAC | 0.0181
168 | GTGAATTA | 0.221
169 | ACAATAAA | 0.104
170 | CGGTCCGC | -0.279
171 | CAAAGCGA | -0.152
172 | ATTTCTCC | 0.21
